According to the supplement of paper PMC4967469:
Lines with a small IC50 respond at low doses; a limit (>, <) means that the fit lies beyond the doses tested. For AUC the same curve is integrated over the 256-fold range of doses and scaled to a fraction: 1 means no effect, lower means more sensitive. For some assays here: Any top dose called inferred was derived from the fitted curves, not read from the paper. For some assays here: An entry number marks a drug with two screens in the source, which often give different values.

How the values were obtained:
Assay in all cases: Viability of human cancer cell lines after 72 h of drug (GDSC screen)
Epothilone B = compound: C/C(=C\c1csc(C)n1)[C@@H]1C[C@@H]2O[C@]2(C)CCC[C@H](C)[C@H](O)[C@@H](C)C(=O)C(C)(C)[C@@H](O)CC(=O)O1 [Epothilone B]; conditions: top dose 0.032 µM; top dose inferred
Experimental: (§1)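 Human cancer cell lines in 384-well plates, medium with 10% serum, drug for 72 h over a 256-fold dose range (nine 2-fold or five 4-fold steps up to the top dose). Adherent lines were fixed and stained with the nucleic acid dye Syto60, suspension lines read with resazurin; signal relative to control wells, capped at 0 and 100%. One two-parameter sigmoid per drug and line, fitted in a mixed model over all curves with the slope shared within a line.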

PHA-793887 = compound: CC(C)CC(=O)Nc1n[nH]c2c1CN(C(=O)C1CCN(C)CC1)C2(C)C [PHA-793887]; conditions: top dose 10.24 µM
Experimental: as §1

PLX4720 = compound: CCCS(=O)(=O)Nc1ccc(F)c(C(=O)c2c[nH]c3ncc(Cl)cc23)c1F [PLX4720]; conditions: top dose 10 µM
Experimental: as §1

Pyrimethamine = compound: CCc1nc(N)nc(N)c1-c1ccc(Cl)cc1 [Pyrimethamine]; conditions: top dose 20 µM; top dose inferred
Experimental: as §1

AZD-0530 = compound: CN1CCN(CCOc2cc(OC3CCOCC3)c3c(Nc4c(Cl)ccc5c4OCO5)ncnc3c2)CC1 [AZD-0530]; conditions: top dose 2 µM
Experimental: as §1

Y-39983 = compound: C[C@@H](N)c1ccc(C(=O)Nc2ccnc3[nH]ccc23)cc1 [Y-39983]; conditions: top dose 20 µM; top dose inferred
Experimental: as §1

Imatinib = compound: Cc1ccc(NC(=O)c2ccc(CN3CCN(C)CC3)cc2)cc1Nc1nccc(-c2cccnc2)n1 [Imatinib]; conditions: top dose 2 µM
Experimental: as §1

TPCA-1 = compound: NC(=O)Nc1sc(-c2ccc(F)cc2)cc1C(N)=O [TPCA-1]; conditions: top dose 20 µM
Experimental: as §1

[1] = screen: GDSC drug entry 1371, top dose inferred

| Cell Line | AUC (Epothilone B) | IC50 (Epothilone B) | AUC (PHA-793887) | IC50 (PHA-793887) | AUC (PLX4720; screen: GDSC drug entry 1036) | IC50 (PLX4720; screen: GDSC drug entry 1036) | AUC (PLX4720; [1]) | IC50 (PLX4720; [1]) | AUC (Pyrimethamine) | IC50 (Pyrimethamine) | AUC (AZD-0530) | IC50 (AZD-0530) | AUC (Y-39983) | IC50 (Y-39983) | AUC (Imatinib) | IC50 (Imatinib) | AUC (TPCA-1) | IC50 (TPCA-1) |
| --- | --- | --- | --- | --- | --- | --- | --- | --- | --- | --- | --- | --- | --- | --- | --- | --- | --- | --- |
| HA7-RCC (kidney, adherent) | 0.341 | 0.688 nM | 0.961 | > 10200 nM | 0.977 | > 10 µM | 0.972 | > 10 µM | 0.961 | > 20 µM | 0.836 | 1530 nM | 0.958 | > 20 µM | 0.984 | > 2000 nM | 0.736 | 6.4 µM |
| HT-144 (melanoma, adherent) | 0.497 | 1.96 nM | 0.981 | > 10200 nM | 0.544 | 0.836 µM | 0.739 | 3.31 µM | 0.756 | 7.58 µM | 0.955 | > 2000 nM | 0.97 | > 20 µM | 0.955 | > 2000 nM | 0.961 | > 20 µM |
| JM1 (B-cell lymphoma, suspension) | 0.711 | 7.13 nM | 0.463 | 516 nM | 0.989 | > 10 µM | 0.986 | > 10 µM | 0.986 | > 20 µM | 0.981 | > 2000 nM | 0.887 | 16.8 µM | 0.99 | > 2000 nM | 0.678 | 3.62 µM |
| JVM-2 (lymphoid neoplasm, suspension) | 0.979 | > 32 nM | 0.884 | > 10200 nM | 0.851 | > 10 µM | 0.847 | > 10 µM | 0.945 | > 20 µM | 0.937 | > 2000 nM | 0.927 | > 20 µM | 0.96 | > 2000 nM | 0.803 | 12.7 µM |
| KARPAS-45 (lymphoblastic leukaemia, suspension) | 0.682 | – | 0.711 | 2240 nM | 0.893 | 8.44 µM | 0.991 | > 10 µM | 0.974 | > 20 µM | 0.96 | > 2000 nM | 0.801 | 7.9 µM | 0.984 | > 2000 nM | 0.464 | 1.01 µM |
| KMOE-2 (acute myeloid leukaemia, suspension) | 0.893 | 30.9 nM | 0.701 | 2190 nM | 0.951 | > 10 µM | 0.965 | > 10 µM | 0.971 | > 20 µM | 0.988 | > 2000 nM | 0.964 | > 20 µM | 0.99 | > 2000 nM | 0.845 | 12.2 µM |
| KNS-81-FD (glioma, adherent) | 0.876 | > 32 nM | 0.942 | > 10200 nM | 0.877 | > 10 µM | 0.961 | > 10 µM | 0.979 | > 20 µM | 0.981 | > 2000 nM | 0.964 | > 20 µM | 0.98 | > 2000 nM | 0.961 | > 20 µM |
| L-363 (myeloma, suspension) | 0.684 | 6.01 nM | 0.459 | 502 nM | 0.99 | > 10 µM | 0.99 | > 10 µM | 0.941 | > 20 µM | 0.989 | > 2000 nM | 0.91 | > 20 µM | 0.99 | > 2000 nM | 0.785 | 7.34 µM |
| LB2241-RCC (kidney, adherent) | 0.62 | 4.46 nM | 0.984 | > 10200 nM | – | – | 0.948 | > 10 µM | 0.968 | > 20 µM | 0.982 | > 2000 nM | 0.975 | > 20 µM | 0.875 | > 2000 nM | 0.955 | > 20 µM |
| LB2518-MEL (melanoma, adherent) | 0.792 | 15.3 nM | 0.987 | > 10200 nM | 0.932 | > 10 µM | 0.986 | > 10 µM | 0.944 | > 20 µM | 0.959 | > 2000 nM | 0.971 | > 20 µM | 0.954 | > 2000 nM | 0.919 | > 20 µM |
| LC4-1 (lymphoblastic leukaemia, suspension) | 0.772 | 13.7 nM | 0.355 | 242 nM | 0.96 | > 10 µM | 0.971 | > 10 µM | 0.889 | > 20 µM | 0.896 | > 2000 nM | 0.937 | > 20 µM | 0.906 | > 2000 nM | 0.72 | 5.66 µM |
| LOXIMVI (melanoma, semi-adherent) | 0.967 | > 32 nM | 0.879 | 8530 nM | 0.742 | 2.79 µM | 0.65 | 1.55 µM | 0.834 | 11.1 µM | 0.962 | > 2000 nM | 0.986 | > 20 µM | 0.984 | > 2000 nM | 0.868 | 15 µM |
| LU-65 (large cell lung carcinoma, suspension) | 0.822 | 23.3 nM | 0.818 | 7170 nM | 0.982 | > 10 µM | 0.963 | > 10 µM | 0.837 | 17 µM | 0.975 | > 2000 nM | 0.936 | > 20 µM | 0.98 | > 2000 nM | 0.84 | 17.6 µM |
| LU-139 (small cell lung carcinoma, suspension) | 0.881 | > 32 nM | 0.586 | 1180 nM | 0.858 | > 10 µM | 0.979 | > 10 µM | 0.783 | – | 0.98 | > 2000 nM | 0.888 | > 20 µM | 0.98 | > 2000 nM | 0.841 | > 20 µM |
| MFH-ino (soft tissue, adherent) | 0.249 | 0.327 nM | 0.929 | > 10200 nM | 0.983 | > 10 µM | 0.975 | > 10 µM | 0.969 | > 20 µM | 0.833 | 1620 nM | 0.969 | > 20 µM | 0.98 | > 2000 nM | 0.926 | > 20 µM |
